# According to PubChem BioAssay AID504706 (National Center for Advancing Translational Sciences (NCATS), 2011):
# Hit rate of the full screen: of about 320,000 compounds, about 200 (0.062%) were called active. Inconclusive means that the source gave no clear call. Such entries were picked first, then a sample of the others. The call rests on the fitted dose curve; in most records, active means well fitted activation curve with a large enough effect; inconclusive means small, poorly fitted or top-dose-only effect; inactive means no such curve, though single readings can be large or run the other way. No potency is given beside an inconclusive call; the fits are too rough.
# Experiment: qHTS assay for re-activators of p53 using a Luc reporter; further: nearly all actives have a fitted effect of over 45% in size
# Details: H1299 p53-A138V BP100-luciferase reporter, luminescence, 24 h; series mostly up to 92.2 µM
# How it was run: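 p53-null H1299 cells stably carrying temperature-sensitive p53-A138V and a BP100-luciferase reporter were pinned with compounds (4-point, 1:5 series) and held 24 hrs at 37 deg C. Luminescence was read 10 min after detection reagent.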
# Potency means the concentration at half of the fitted maximal effect; tags describe the fitted curve by direction and shape.
row,SMILES,Potency
1,O=C(Nc1ccn(Cc2ccccc2)n1)c1n[nH]c([N+](=O)[O-])c1Cl,"inconclusive [activator, full curve, poor fit]"
2,CCCCN(C)CCOc1ccccc1OCC,inactive
3,C=CCOc1c(Br)cc(/C=N/Nc2ccc(C(=O)O)cc2)cc1OCC,"inconclusive [activator, partial curve, poor fit]"
4,O=C(CCN1C(=O)C2CC=CCC2C1=O)Nc1nc(-c2ccc(F)c(F)c2)cs1 (stereo not given),"inconclusive [activator, full curve, poor fit]"
5,c1ccc(-c2nc3ccccc3nc2N2CCOCC2)cc1,inactive
6,CC(=O)c1sc(NC(=O)C2(F)C(F)(F)C(F)(F)C(F)(F)C(F)(F)C2(F)F)nc1C,inactive
7,CSc1ccccc1NC(=O)c1ccc(N2CCCC2=O)cc1,"inconclusive [activator, full curve, poor fit]"
8,CC(C)(C)c1ccc(-c2conc2N)cc1,"inconclusive [activator, partial curve, poor fit]"
9,S=C(NNc1ccc2ccccc2c1)NC1CCCCC1,"inconclusive [activator, partial curve, poor fit]"
10,CCOC(=O)N1CCN(C(=O)c2ccc3c(c2)sc2nc(-c4ccccc4)cn23)CC1,"inconclusive [activator, full curve, poor fit]"
11,O=C(NCCc1cccc(Cl)c1)c1cccs1,inactive
12,COC(=O)c1cccc(-c2noc(-c3ccccc3F)n2)c1,"inconclusive [activator, partial curve, poor fit]"
13,O=C(N1CCN=C1SCc1cccnc1)C12CC3CC(CC(C3)C1)C2,"inconclusive [activator, full curve, poor fit]"
14,Cc1ccc(C)c(SCc2noc(C(=O)NC(C)C)c2C(=O)O)c1,inactive
15,COc1cccc(NC(=S)N(CCCN2CCOCC2)Cc2cn(C)c3ccccc23)c1,inactive
16,CCOC(=O)Cc1csc(NC(=O)CSc2nc(N)c3c(C)c(C)sc3n2)n1,inactive
17,COc1ccc(-c2nc(CS(=O)CC(=O)NC3CCCC(C)C3C)c(C)o2)cc1OC (stereo not given),inactive
18,Oc1ccc(N=Nc2cccc(Cl)c2)cc1C=Nc1ccc(N2CCOCC2)cc1,"inconclusive [activator, single point]"
19,O=C(NCc1ccco1)c1ccc(COc2cc(Cl)ccc2Cl)cc1,"inconclusive [activator, partial curve, poor fit]"
20,CSc1nc2ccc(NC(=O)c3ccc(=O)n(C)n3)cc2s1,inactive
21,COC(=O)c1cccc(NC(=O)Cc2ccccc2[N+](=O)[O-])c1C,"inconclusive [activator, single point]"
22,CCC(=O)Nc1ccc2c(c1)ncn2-c1ccc(OC)cc1,inactive
23,Cn1c(=O)c2c(nc(NCc3ccco3)n2Cc2ccc(Cl)cc2Cl)n(C)c1=O,"inconclusive [activator, single point]"

row,SMILES,Potency
1,Cc1ccc(-c2noc(Cn3cc(S(=O)(=O)N4CCCC4)ccc3=O)n2)cc1,"inconclusive [activator, single point]"
2,O=C1C(=O)c2c(C(=O)c3ccccc3)coc2-c2ccccc21,"inconclusive [activator, partial curve, poor fit]"
3,CCN(CC)c1ccc(/C=N/NC(=O)c2ccoc2C)c(O)c1,"inconclusive [activator, full curve, poor fit]"
4,COc1ccc(Cl)cc1NC(=O)Nc1cc(C)on1,"inconclusive [activator, full curve, poor fit]"
5,Cc1ccc(/C=N/NC(=O)c2cc(C3CC3)nc3ccccc23)o1,inactive
6,CCCCC[C@@H]1C=C(C(=O)O)[C@H](c2ccc(OC)c(OC)c2)N1S(=O)(=O)c1ccc(C)cc1,inactive
7,O=c1c2ccccc2oc2c1ccc1ccccc12,"inconclusive [activator, partial curve, poor fit]"
8,CCN(CC)CCCNC(=O)c1ccc(S(=O)(=O)Nc2ccc(C)c(C)c2)cc1,"inconclusive [activator, partial curve, poor fit]"
9,Cc1ccccc1-c1noc(-c2ccc(O)cc2)n1,"inconclusive [activator, partial curve, poor fit]"
10,Cn1c(CNc2ccccc2)nc2ccccc21,"inconclusive [activator, partial curve, poor fit]"
11,COc1cc(NC(=O)C2CCC(CNc3c(N4CCCCC4)c(=O)c3=O)CC2)cc(OC)c1 (stereo not given),inactive
12,NC(=O)CSc1ccc(S(=O)(=O)N2CCCCC2)cn1,"inconclusive [activator, single point]"
13,CCc1ccc2[nH]c(C(=O)Nc3ccc(C)c(F)c3)cc2c1,inactive
14,O=C(CSC1=NCCS1)NCc1ccco1,"inconclusive [activator, single point]"
15,COc1cc(/C=C/c2cc(OC(C)=O)c3ccccc3n2)c(OC(C)=O)c([N+](=O)[O-])c1,inactive
16,COc1ccc(Cn2c(-c3ccc(Cl)cc3)c[n+]3ccccc23)cc1,"inconclusive [activator, partial curve, poor fit]"
17,O=[N+]([O-])c1cc(Cl)ccc1-c1nc(-c2ccccc2)no1,"inconclusive [activator, partial curve, poor fit]"
18,O=C(CN1C(=O)COc2ccccc21)Nc1ccc(F)cc1,"inconclusive [activator, full curve, poor fit]"
19,O=C(COc1ccc(Cl)cc1)Nc1ccccc1Cl,"inconclusive [activator, partial curve, poor fit]"
20,COc1ccc(OC)c(-c2csc(NC(=O)Cc3ccccc3)n2)c1,inactive
21,O=C(N/N=C/c1ccccc1Cl)c1cccc(F)c1,"inconclusive [activator, partial curve, poor fit]"
22,CCn1ncc(/C=N\NC(=O)c2csc3ccccc23)c1C,"inconclusive [activator, partial curve]"
